These are enrichments in a pooled selection; single values are uncertain.
system: NB7; experiment: fold depletion of shRNA, plasmid library share / infected cells without Dox share (9 days) (ratio); higher = more depleted after infection (more toxic, leaky expression from a Tet-inducible vector; NB7 is a neuroblastoma line without caspase-8); details: shRNA pool: CD95L ORF + CD95L 3'UTR + Venus libraries
Protocol: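 Pooled lethality screen in NB7 neuroblastoma cells infected with Dox-inducible pTIP shRNA libraries. The libraries tile every 21-mer of the Venus, CD95L or CD95 ORF / 3'UTR; each hairpin is the 21-nt sense sequence + CTCGAG loop + antisense. Cells were cultured 9 days with or without 100 ng/ml Dox. shRNA representation was measured by deep sequencing of the genomic inserts, normalised to the total reads per subpool and averaged over technical replicates. Fold depletion is the plasmid library share / infected cells without Dox share (mean of 2 biological replicates), and the -Dox/+Dox share ratio is the mean of 4 replicate pairings; higher values mean more depletion (toxicity).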
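Also: shRNA barcodes quantified by deep sequencing of PCR amplicons from cellular DNA, counts expressed as percent of each subpool, ratio averaged over two biological duplicates.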

Row | Sequence | fold depletion of shRNA
1 | CAGGTGTTCTACACTCATCTT | 1.17
2 | TTCCTAACACAGCATGTGTAT | 1.18
3 | TGTCAGCTACTAATGATGTTT | 2.43
4 | GGCGATGCCACCTACGGCAAG | 0.437
5 | TCAGTGAGGGTCTTCTTACAT | 27.8
6 | GAGGGAGAAGCATGAAAAAGC | 0.889
7 | TTCAGCTCTTCCACCTACAGA | 9.79
8 | AATAAAAAGTATATGTTAGGA | 0.493
9 | TTGCATTTGGTCAAGATTTTG | 30.9
10 | TCCCCAGATCTACTGGGTGGA | 2.32
11 | CACAGTTCTTCCCTGTCCAAC | 4.19
12 | ATTCCAAAGTATACTTCCGGG | 2.98
13 | GGCAAGCTGCCCGTGCCCTGG | 0.499
14 | ACCCCCTGAAAAAAAGGAGCT | 3.29
15 | AAGGAAGACTAGAGGCTTGCA | 0.911
16 | CCGCAGCAGCTACCTGGGGGC | 96.8

Row | Sequence | fold depletion of shRNA
17 | ACATATTAGGAAAATATGGGT | 0.669
18 | TTGAGGTCAAGTAAGAAGACA | 0.721
19 | ACGGCATCAAGGCCAACTTCA | 2.25
20 | GTTCGAGGGCGACACCCTGGT | 0.761
21 | CCGGGATCACTCTCGGCATGG | 0.977
22 | CAGTGCAATTGTAGGGGTGTG | 2.71
23 | CCTGAAAAAAAGGAGCTGAGG | 1.22
24 | TTTAACTCACCTCTCAAGGTG | 0.639
25 | AAGACCCCAACGAGAAGCGCG | 0.472
26 | CATTTCATTCCTAACACAGCA | 1.25
27 | GGAGTTCGTGACCGCCGCCGG | 1.47
28 | CGTGTCCGGCGAGGGCGAGGG | 0.912
29 | TCGAGCTGAAGGGCATCGACT | 3.06
30 | TTTGTTACAGGCACCGAGAAT | 3.7
31 | GGATGTTTCAGCTCTTCCACC | 8.42

same assay, conditions: shRNA pool: CD95 ORF + CD95 3'UTR + Venus libraries

Row | Sequence | fold depletion of shRNA
32 | TGCACCCGGACCCAGAATACC | 1.41
33 | GTCATACCCCCAAGTTTCTAA | 2.02
34 | GGCGATGCCACCTACGGCAAG | 0.748
35 | CAGACAAAGCCCATTTTTCTT | 0.767
36 | ACACAGACAAAGCCCATTTTT | 1.12
37 | GCACACTCACCAGCAACACCA | 1.35
38 | CCAAATAGGAGTGTATGCAGA | 1.84
39 | GGCAAGCTGCCCGTGCCCTGG | 1.31
40 | ACGGCATCAAGGCCAACTTCA | 1.28
41 | CCCCCGAAAATGTTCAATAAT | 2.31
42 | TCTGATAATTCTAGAGATTTT | 0.618
43 | TTTATTGGTGTCATATTATAC | 0.81
44 | GGGACTGCACAGTCAATGGGG | 1.24
45 | TCTGAGTATATGCAATTAGTG | 1.46
46 | GGTGAAGAGAAAGGAAGTACA | 1.27
47 | TAACTCTGAGAAGATCATATT | 1.69
48 | GTTCGAGGGCGACACCCTGGT | 1.45
49 | CCGGGATCACTCTCGGCATGG | 1.68
50 | CAACAAATTCAGTTCTGAGTA | 1.08
51 | AAGACCCCAACGAGAAGCGCG | 0.639
52 | TGAATCTCCAACTTTAAATCC | 2.06
53 | GGAGTTCGTGACCGCCGCCGG | 1.13
54 | CGTGTCCGGCGAGGGCGAGGG | 1.32
55 | TGTTTGGAATTATAAAATATA | 1.26
56 | TCGAGCTGAAGGGCATCGACT | 0.819
57 | AACATGCAGAAAGCACAGAAA | 1.52
